This is one part of the list.
What was measured:
Assay in all cases: glycan array binding signal (z-score within array); higher = stronger binding
Conditions in all cases: glycan notation: IUPAC condensed, linker removed
Neu5Ac(a2-8)Neu5Ac = target: Neu5Ac(a2-8)Neu5Ac
Procedure, shortened: (§1)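 The binding signal is a Z-score computed within each array. Data were drawn from 3228 arrays in the Consortium for Functional Glycomics database, restricted to those with a known protein sequence. Scores were averaged over arrays of the same protein sequence at different concentrations or buffers, and over linkers, and negative values can be taken as non-binding.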

[1] = target: Neu5Ac(a2-8)Neu5Ac(a2-3)Gal(b1-3)GalNAc(b1-4)[Neu5Ac(a2-3)]Gal(b1-4)Glc
Procedure, shortened: as §1

[2] = target: Neu5Ac(a2-8)Neu5Ac(a2-3)Gal(b1-3)GalNAc(b1-4)[Neu5Ac(a2-8)Neu5Ac(a2-3)]Gal(b1-4)Glc
Procedure, shortened: as §1

[3] = target: Neu5Ac(a2-8)Neu5Ac(a2-3)Gal(b1-4)Glc
Procedure, shortened: as §1

[4] = target: Neu5Ac(a2-8)Neu5Ac(a2-3)Gal(b1-4)GlcNAc
Procedure, shortened: as §1

[5] = target: Neu5Ac(a2-8)Neu5Ac(a2-3)[Gal(b1-3)GalNAc(b1-4)]Gal(b1-4)Glc
Procedure, shortened: as §1

[6] = target: Neu5Ac(a2-8)Neu5Ac(a2-3)[GalNAc(b1-4)]Gal(b1-4)Glc
Procedure, shortened: as §1

[7] = target: Neu5Ac(a2-8)Neu5Ac(a2-8)Neu5Ac
Procedure, shortened: as §1

[8] = target: Neu5Ac(a2-8)Neu5Ac(a2-8)Neu5Ac(a2-3)Gal(b1-4)Glc
Procedure, shortened: as §1

[9] = target: Neu5Ac(a2-8)Neu5Ac(a2-8)Neu5Ac(a2-3)[Gal(b1-3)GalNAc(b1-4)]Gal(b1-4)Glc
Procedure, shortened: as §1

[10] = target: Neu5Ac(a2-8)Neu5Ac(a2-8)Neu5Ac(a2-3)[GalNAc(b1-4)]Gal(b1-4)Glc
Procedure, shortened: as §1

[11] = target: Neu5Ac(a2-8)Neu5Ac(a2-8)Neu5Ac(a2-8)Neu5Ac(a2-3)[GalNAc(b1-4)]Gal(b1-4)Glc
Procedure, shortened: as §1

[12] = target: Neu5Ac(a2-8)Neu5Gc(a2-3)Gal(b1-4)GlcNAc
Procedure, shortened: as §1

[13] = target: Neu5Ac(b2-6)Gal(b1-4)GlcNAc
Procedure, shortened: as §1

Neu5Ac(b2-6)GalNAc = target: Neu5Ac(b2-6)GalNAc
Procedure, shortened: as §1

[14] = target: Neu5Ac9Ac(a2-3)Gal(b1-3)GlcNAc
Procedure, shortened: as §1

[15] = target: Neu5Ac9Ac(a2-3)Gal(b1-4)GlcNAc
Procedure, shortened: as §1

[16] = target: Neu5Ac9Ac(a2-6)Gal(b1-4)GlcNAc
Procedure, shortened: as §1

[17] = target: Neu5Gc(a2-3)Gal(b1-3)GlcNAc
Procedure, shortened: as §1

[18] = target: Neu5Gc(a2-3)Gal(b1-3)[Fuc(a1-4)]GlcNAc
Procedure, shortened: as §1

Neu5Gc(a2-3)Gal(b1-4)Glc = target: Neu5Gc(a2-3)Gal(b1-4)Glc
Procedure, shortened: as §1

[19] = target: Neu5Gc(a2-3)Gal(b1-4)GlcNAc
Procedure, shortened: as §1

[20] = target: Neu5Gc(a2-3)Gal(b1-4)GlcNAc(b1-3)Gal(b1-4)GlcNAc(b1-2)Man(a1-3)[Neu5Gc(a2-3)Gal(b1-4)GlcNAc(b1-3)Gal(b1-4)GlcNAc(b1-2)Man(a1-6)]Man(b1-4)GlcNAc(b1-4)GlcNAc
Procedure, shortened: as §1

[21] = target: Neu5Gc(a2-3)Gal(b1-4)[Fuc(a1-3)]GlcNAc
Procedure, shortened: as §1

[22] = target: Neu5Gc(a2-6)Gal(b1-4)GlcNAc
Procedure, shortened: as §1

Neu5Gc(a2-6)GalNAc = target: Neu5Gc(a2-6)GalNAc
Procedure, shortened: as §1

[23] = target: Neu5Gc(a2-8)Neu5Ac(a2-3)Gal(b1-4)GlcNAc
Procedure, shortened: as §1

[24] = target: Neu5Gc(a2-8)Neu5Gc(a2-3)Gal(b1-4)GlcNAc
Procedure, shortened: as §1

[25] = target: Neu5Gc(a2-8)Neu5Gc(a2-3)Gal(b1-4)GlcNAc(b1-3)Gal(b1-4)GlcNAc
Procedure, shortened: as §1

[26] = target: Neu5Gc(a2-8)Neu5Gc(a2-6)Gal(b1-4)GlcNAc
Procedure, shortened: as §1

[27] = target: Neu5Gc(b2-6)Gal(b1-4)GlcNAc
Procedure, shortened: as §1

B1: Als3-2 (Candida albicans) (protein)
chain: KTITGVFNSFNSLTWSNAATYNYKGPGTPTWNAVLGWSLDGTSASPGDTFTLNMPCVFKFTTSQTSVDLTAHGVKYATCQFQAGEEFMTFSTLTCTVSNTLTPSIKALGTVTLPLAFNVGGTGSSVDLEDSKCFTAGTNTVTFNDGGKKISINVDFERSNVDPKGYLTD
With B1 the “glycan array binding signal (z-score)” value (Neu5Ac(a2-8)Neu5Ac) was -0.01, the “glycan array binding signal (z-score)” value [1] was 1.6 and the “glycan array binding signal (z-score)” value [2] was -0.712. The “glycan array binding signal (z-score)” value [3] was -0.68, the “glycan array binding signal (z-score)” value [4] was -0.06 and the “glycan array binding signal (z-score)” value [5] was -0.554. The “glycan array binding signal (z-score)” value [6] was -0.312, the “glycan array binding signal (z-score)” value [7] was -0.398 and the “glycan array binding signal (z-score)” value [8] was -0.603. For the same binder, the “glycan array binding signal (z-score)” value [9] was 1.21, the “glycan array binding signal (z-score)” value [10] was -0.256 and the “glycan array binding signal (z-score)” value [11] was 2.03. The “glycan array binding signal (z-score)” value [12] was 0.414, the “glycan array binding signal (z-score)” value [13] was -0.47 and the “glycan array binding signal (z-score)” value (Neu5Ac(b2-6)GalNAc) was -0.638. For the same binder, the “glycan array binding signal (z-score)” value [14] was -0.586, the “glycan array binding signal (z-score)” value [15] was -0.346 and the “glycan array binding signal (z-score)” value [16] was -0.48. The “glycan array binding signal (z-score)” value [17] was -0.055, the “glycan array binding signal (z-score)” value [18] was 0.203 and the “glycan array binding signal (z-score)” value (Neu5Gc(a2-3)Gal(b1-4)Glc) was 0.047. For the same binder, the “glycan array binding signal (z-score)” value [19] was 0.059, the “glycan array binding signal (z-score)” value [20] was 0.572 and the “glycan array binding signal (z-score)” value [21] was -0.059. The “glycan array binding signal (z-score)” value [22] was 0.625, the “glycan array binding signal (z-score)” value (Neu5Gc(a2-6)GalNAc) was -0.178 and the “glycan array binding signal (z-score)” value [23] was -0.101. For the same binder, the “glycan array binding signal (z-score)” value [24] was -0.685, the “glycan array binding signal (z-score)” value [25] was 0.899 and the “glycan array binding signal (z-score)” value [26] was -0.628. For the same binder, the “glycan array binding signal (z-score)” value [27] was 0.295.

From the supplement of paper PMC8728848
